# Experimental data as given in the supplement of paper PMC11417369.
# The list shows a part of the results.
# System: PfSIP2 AP2 domain 1 (GST-tagged)
# Assay: gcPBM binding intensity (ln(normalized median fluorescence intensity)); higher = stronger DNA binding
# How it was run: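 Alexa488 anti-GST antibody, scanned at 488 nm, detected GST-tagged P. falciparum DNA-binding domains that had been expressed in E. coli and incubated for 1 h on an Agilent 4 × 180k array. The array carried primer-extended double-stranded 36-bp intergenic genomic probes and negative controls. Binding intensity is the highest Masliner-normalised natural-log median intensity across replicate spots of either orientation of each probe.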
row,Sequence,gcPBM binding intensity (ln)
1,TATAAAAGACTAAATATTATAGAAATATAAATATAA [TGCATGCA_negctrl_site237],6.66
2,TTTTTTTTTTTAAGTTCACACATAAATTCGATTTAC [CACACA_site5057],6.9
3,ACCGTTTTTGTGTAATGTACAAAATTTCTGACAGTG [XGTACX_site4999],7.15
4,ATAATTTGTAAAAGGAGTACAAAACCATACTTTTTT [XGTACX_site6076],7.29
5,AAAGGAAAATTAAAAAGTACACATTTGAAAAAAAAA [XGTACX_site2724],6.99
6,ATGTATTTAATAAGAACACACATATATTTAATTTAA [CACACA_site5606],6.79
7,TTTATACATTTATATTGTACTAATTCGATTTTATAT [XGTACX_site5424],6.97
8,AATGATCATATATACACACACACAAAAAAAAAAAAA [CACACA_site4009],7
9,AAAGAAAAAGAAAAAGAAAAATTAGAATATAAAATA [CACACA_negctrl_site792],6.3
10,ATAAGAAATGTAACTTGTACATAAGGATATATATTT [XGTACX_site236],6.86
11,CATTTATATAAATACACACACACAAAAAAAAAAAAA [CACACA_site5459],6.97
12,TAATAATAAAAAAATAGTACATAAATAAAAATAATA [XGTACX_site4774],7.13
13,ATTTATAAAATTAATGCACACATCAGCATTTATAAA [CACACA_site1025],7.22
14,TAAATACATAGATGTACACACATTACAGATGTACAT [CACACA_site4692],7.09
15,TATAAAATAAAAAATAAATATCTATATATATATATA [TGCATGCA_negctrl_site351],9.12
16,ATAAAGCACACCGACACACACATATTTATATTTATA [CACACA_site6620],7.22
17,TTGTGTTATCCTTTTTTAGATCAACTATTTTTATTC [CACACA_negctrl_site145],6.94
18,GTCCCTATAAGGGGAACACACATAAATGAATATATA [CACACA_site1024],6.87
19,TTTTTTTGTTAAAAGGTGCTAATATATATAAGTGCT,9.03
20,TTATATATTTATATATGTACACATTTTACCATTTTT [XGTACX_site2142],6.9
21,AAATTTATAAAGAACACACACATATAAATATAAATA [CACACA_site6174],6.89
22,ATTTATTTCTTGTTAGTGCACTTTCTTTGGTAAAAT,11.1
23,TTAAAATGTTGTAACGTGCACATTTTGTGGAAATCA [GTGCAC_site9559],8.55

row,Sequence,gcPBM binding intensity (ln)
1,TTATAATTGTAAGGTAGTACATATAAATCAAATAAT [XGTACX_site7190],7.34
2,TATACAGATGGACACACACACATATATATATATATA [CACACA_site5272],9.34
3,ATACAAACAATTATTTGTACATAAAATTTTTTTTTT [XGTACX_site90],6.92
4,ATGAATCTTTTAAAAAGTACATGTGAAAAAAATAAA [XGTACX_site49],7.22
5,ATATTTATATATTGCACACAAAAAAAAAAAAAAATC [CACACA_site1629],7.6
6,TATATATATATGTAATGTACATAAATTTTATACCTT [XGTACX_site6991],9.07
7,CAGTAGTATATACTATGTACATATTTATATTATATT [XGTACX_site4964],7.07
8,TAATAAATAAAAATAGAACACACATATGTTTTTTTT [CACACA_site9185],6.68
9,AATATAAATAAACACACACACATATATATATATATT [CACACA_site2906],7.54
10,AAAAAAAAAAAAAAATGTACATATATATAAATAAAA [XGTACX_site5574],7.35
11,TATATTCATAATATTACACACGTTCATTTATTTTAA [CACACA_site2031],7.12
12,GAGTGAAATATGCAAACACACACGAGAAAAATGTAT [CACACA_site3196],7.19
13,TATGGTTTTAAAAAATGTACGCAAGTGCGTTAATTT [XGTACX_site3945],7.39
14,AACAACCAAACGCACACACACAAAAAAAAAAATATA [CACACA_site6326],7.62
15,TTATATGCATAAAAAGGTACACATATATAAATAAAT [XGTACX_site6894],7.12
16,ACATTTAAAATTTATGCATGTGGTGTTTTGTATATA [TGCATGCA_site534],7.26
17,TTTGTGTAGGTGTGTAGTACATATAACTTATAACAT [XGTACX_site7885],7.43
18,TAATAAAATGTACACGCATGCAATAGAATATAAAGT [TGCATGCA_site905],7.66
19,TATATTAATTATAAGACACACATATAGTAATAGAAA [CACACA_site2056],6.9
20,AATAAGAAAACAAATGCACACCATTTATATAGATTA [CACACA_site8261],7.1
21,ATGGGTTAGGCGTGTACACAATTGTATGGTTTAATA [CACACA_site4812],7.2
22,ACATATTTTTACTTTTGTACATATTTTTTAATTTTC [XGTACX_site640],7.13
23,TTTATATATTTTTATCTTGATAATAATGTTTTAGAA [TGCATGCA_negctrl_site300],6.57

row,Sequence,gcPBM binding intensity (ln)
1,GTATATTACATAAAATGTACATAAAAAGCGGAAAAG [XGTACX_site6905],7.51
2,AAATATAATTAATGATGTACACTTATAGATATTGAT [XGTACX_site8435],7.09
3,TATTCTCGTTCTCATACACACAAAATATACATACAC [CACACA_site7278],7.43
4,GGGTTAATATTTACTACACACACTTAAAATATGTAT [CACACA_site47],7.1
5,ATGTATTTTTAAAAATATAAATTATGTAACTTGTGA [XGTACX_negctrl_site620],6.98
6,TACTGATATAATATAACCGTTTATGTGTATTTTTTA [XGTACX_negctrl_site81],6.74
7,TATAATAAAATTTTTACACACTTTAAAAAAAAAAAA [CACACA_site524],6.88
8,CGTGGAAAAAAAAACACACACAAAAAAAAAAAAAAA [CACACA_site3997],6.96
9,TTCAAATATATGTTTTCACACACAAAAGAAATGAAA [CACACA_site8671],7.04
10,TTTTCTCTAAAAAGGTGTACAACTAATAATGCACTG [XGTACX_site6074],9.09
11,ATATATATATAATATTGTACGAAAAAAAATAAAAAA [XGTACX_site974],8.84
12,TATTTTACTTTAAAAATGGAAAAAAAAAAGAATATT [CACACA_negctrl_site1360],6.75
13,TTTTTTTTTTTTACATGTACATATGAATTATAATAT [XGTACX_site5016],7.29
14,TTAATAAAACTAACACGTACACATATATAATATTAT [XGTACX_site3260],7.13
15,ATTGTCATCATTATATGTACGTAAAAGAATATAGAT [XGTACX_site3117],7.41
16,GAAAGAAGCATAAATGTACACACATATTTATATATT [CACACA_site8368],7.04
17,TATGTTAAAAAAAAAAAAAAGAAAAAAATAAAAGGA [CACACA_negctrl_site119],6.72
18,AAACAAATAGACACTTGTACGTAAGTAAATAATTAA [XGTACX_site6157],6.9
19,AAGGGAAAAATATGGTTGCACTAAAAATATGTAATT [GTGCAC_site9605],7.96
20,TTTCTATATAGATTTGCACACATAAAAATGCTTATA [CACACA_site2390],7.18
21,CTTTATACATGACATAGTACCCATTTTAGATTTGAA [XGTACX_site5240],6.9
22,TTTAAAAAAATGAAATAAAAAAAAAATAAAATAAAA [XGTACX_negctrl_site316],6.87
23,ATATATATAATTTGTACACACAAATATGCATATATA [CACACA_site3432],7.45

row,Sequence,gcPBM binding intensity (ln)
1,AAATAATTTATATATTGTACAAATATTAAATGCGAA [XGTACX_site3390],7.58
2,AGATATTTTTCTTAAGTACACACTAAATAGAAACTA [CACACA_site44],7.29
3,TTTTTTTTTTTCAGTTGTACATTGGGAAAATATATA [XGTACX_site4416],7
4,AGTCTGAATAAAATTACACACATATACCTATAAATA [CACACA_site6929],6.99
5,GAAAAAAAAAAAAAAAGAAAATTCATATTTTTAATA [XGTACX_negctrl_site513],6.56
6,ACATTTATATATAATTGTACCCTACATTCTCTTTTT [XGTACX_site189],6.95
7,AAAAATATATAAACACGTACACACACATATATGTAT [XGTACX_site7436],7.33
8,TACCAAAAAAAAAAAAAAAATTAAATAAATATGAAA [TGCATGCA_negctrl_site383],6.58
9,GGGTTGATATATATTTGTACATATTATTATTTATTA [XGTACX_site7116],7.37
10,TTTATTTTAACTTGTTCACACATTTGAATAAATAAA [CACACA_site5064],6.99
11,ATATATATATATTATGTGCGCATATACCATTTTAAT [GTGCAC_site9575],8.77
12,ATATAAATATTAATTACACACAAAAAAAAAAAAAAA [CACACA_site6671],6.94
13,AATGGAAAAGGTAGTTGTACAACATGTTAAAATGGT [XGTACX_site1312],7.63
14,ATATAAATAAACAACTTTGTTGGCCTTCCAAAATAT [CACACA_negctrl_site1181],6.76
15,TTGAAGAATAAATATGCACACATGCATATATTTTTA [CACACA_site5840],9.15
16,CTCAAAAAATTTCATAGTACTTTAAAATACTATAAT [XGTACX_site1939],6.95
17,AATAAAAAAAAACGCACACACAAATATATTCCATTC [CACACA_site1224],7.15
18,TTTTGTTCTAATATGGGAACATAAATATTAAATATA [CACACA_negctrl_site1787],6.75
19,TATATATATAAATGAATGCACTTTAGAAAAAAGTAC,8.52
20,ATATATATTATAATAACACACATATATTATATTATA [CACACA_site406],7.07
